Experimental data as given in the supplement of paper PMC9446081.
Among all 39,000 compounds or so, about 220 (0.56%) showed activity. This is one part of the list.

tested on: Escherichia coli K-12 BW25113; experiment: relative growth (OD600 normalised to plate interquartile mean) (fraction); higher = less growth inhibition, active = 0.2 or less; settings: 50 µM; LB; incubation time: overnight (16-24 h)
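Further: static incubation at 37 °C against the wild-type strain, values averaged over two biological replicates.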

| SMILES | relative growth |
| --- | --- |
| CC[C@@H](N)c1ccc(C)c(C)c1 | inactive: 1.02 |
| COCC#Cc1ccc2c(c1)O[C@@H](CN(C)S(=O)(=O)c1cccc(OC)c1)[C@@H](C)CN([C@@H](C)CO)S2(=O)=O | inactive: 1.04 |
| Cc1ccc(S(=O)(=O)Nc2ccc3c(c2)CC(=O)N([C@H](C)CO)C[C@@H](C)[C@@H](CN(C)S(=O)(=O)c2ccc(F)cc2)O3)cc1 | inactive: 1.02 |
| CC(=O)O.Cc1c(-c2ccc(O)cc2)n(Cc2ccc(OCCN3CCCCCC3)cc2)c2ccc(O)cc12 | inactive: 0.842 |
| CCS(=O)(=O)Nc1ccc2c(c1)C(=O)N(C)[C@H]1CC[C@@H](CC(=O)N[C@H]3CCN(Cc4ccccc4)C3)O[C@@H]1CO2 | inactive: 0.991 |
| C[C@H]1CN([C@@H](C)CO)C(=O)c2cccc(NC(=O)C3CCCCC3)c2O[C@@H]1CN(C)Cc1ccc(Cl)c(Cl)c1 | inactive: 0.973 |
| COc1ccc(S(=O)(=O)N(C)C[C@H]2OCCCC[C@@H](C)Oc3ccc(NC(=O)NC4CCCCC4)cc3C(=O)N([C@@H](C)CO)C[C@@H]2C)cc1 | inactive: 1 |
| Nc1ncnc2c1ncn2CCN1CCOCC1 | inactive: 1.03 |
| C[C@H](CO)N1C[C@H](C)[C@H](CN(C)S(=O)(=O)c2cccs2)Oc2c(NC(=O)c3ccncc3)cccc2C1=O | inactive: 0.976 |
| Cn1cnc(S(=O)(=O)N2C[C@@H](O)COC[C@H]3O[C@@H](CC(=O)NC4Cc5ccccc5C4)CC[C@@H]32)c1 | inactive: 0.947 |
| C[C@@H]1CN([C@@H](C)CO)C(=O)c2cccc(NC(=O)c3ccc(-c4nccs4)cc3)c2O[C@@H]1CN(C)Cc1ccc(Oc2ccccc2)cc1 | inactive: 0.991 |
| COc1ccc(NC(=O)N(C)C[C@H]2OCCCC[C@H](C)Oc3ccc(NC(=O)C4CCCCC4)cc3C(=O)N([C@H](C)CO)C[C@@H]2C)cc1 | inactive: 0.852 |
| C[C@@H]1CN([C@@H](C)CO)S(=O)(=O)c2ccc(C#Cc3ccncc3)cc2O[C@H]1CN(C)C(=O)C1CCCCC1 | inactive: 0.993 |
| C[C@@H]1CN([C@@H](C)CO)C(=O)Cc2cc(NC(=O)NC3CCCCC3)ccc2O[C@@H]1CN(C)C(=O)Nc1cccc2ccccc12 | inactive: 1.03 |
| Cc1noc(C)c1S(=O)(=O)Nc1ccc2c(c1)C(=O)N([C@H](C)CO)C[C@H](C)[C@@H](CN(C)Cc1ccc(C(=O)O)cc1)O2 | inactive: 1.01 |
| COc1cccc(S(=O)(=O)Nc2ccc3c(c2)[C@@H]2C[C@H](CC(=O)NCc4ccccc4F)O[C@H](CO)[C@@H]2O3)c1 | inactive: 1.01 |
| Cc1noc(C)c1S(=O)(=O)N(C)C[C@@H]1Oc2ccc(NC(=O)C3CC3)cc2CC(=O)N([C@@H](C)CO)C[C@@H]1C | inactive: 1 |
| Oc1ccccc1/N=C/c1ccncc1 | inactive: 0.953 |
| C[C@H](O)C#Cc1ccc2c(c1)O[C@H](CN(C)C(=O)c1ccccc1)[C@H](C)CN([C@H](C)CO)S2(=O)=O | inactive: 0.971 |
| Nc1ccc(S(N)(=O)=O)cc1 | inactive: 1.03 |

| SMILES | relative growth |
| --- | --- |
| O=C(O)c1cccc(-n2cnnn2)c1 | inactive: 1.02 |
| CCCCCCCCCCCCC(C(=O)O)C(C)C(=O)O (stereo not given) | inactive: 1.01 |
| COc1cccc2c1C(=O)c1c(O)c3c(c(O)c1C2=O)C[C@@](O)(C(=O)CO)C[C@@H]3O[C@H]1C[C@H](N)[C@@H](O)[C@H](C)O1 | inactive: 0.835 |
| C[C@@H]1CN([C@@H](C)CO)C(=O)c2cc(NC(=O)Cn3cnnn3)ccc2O[C@H]1CN(C)S(=O)(=O)c1ccc(Cl)cc1 | inactive: 0.97 |
| C[C@H](CO)N1C[C@H](C)[C@@H](CN(C)C(=O)Nc2ccc3c(c2)OCO3)OCCCC[C@H](C)Oc2ccc(NC(=O)Nc3ccccc3)cc2C1=O | inactive: 1.02 |
| Cc1noc(C)c1S(=O)(=O)Nc1ccc2c(c1)C(=O)N([C@H](C)CO)C[C@H](C)[C@H](CN(C)S(=O)(=O)c1cn(C)cn1)O2 | inactive: 0.988 |
| O=C1C(Cl)=C2OC[C@@]2(O)C[C@@H]2CCCN12 | inactive: 0.929 |
| C[C@@H]1CN([C@H](C)CO)C(=O)Cc2cc(NC(=O)CCCCCC(=O)Nc3ccccc3N)ccc2O[C@@H]1CN(C)Cc1ccc(Oc2ccccc2)cc1 | inactive: 1.01 |
| C[C@@H]1CN([C@H](C)CO)C(=O)CCCn2cc(nn2)CO[C@H]1CN(C)S(=O)(=O)c1ccc2ccccc2c1 | inactive: 1 |
| O=C1OCC=C[C@H]2O[C@@]34C=CCN(c5ccc6ccccc6c5)C(=O)[C@H]3N(CCCCCO)C(=O)[C@@H]4[C@@H]12 | inactive: 1 |
| CO[C@@H]1CN(C)C(=O)c2cc(NC(=O)C3CC3)ccc2OC[C@H](C)N(C(=O)C2CCOCC2)C[C@@H]1C | inactive: 0.998 |
| Cc1ccc(S(=O)(=O)Nc2ccc3c(c2)C(=O)N([C@@H](C)CO)C[C@@H](C)[C@H](CN(C)CC2CC2)O3)cc1 | inactive: 1.01 |
| CCO[C@@H]1OC(C(=O)N2CCN(Cc3ccc4c(c3)OCO4)CC2)=C[C@H](c2ccc3c(c2)OCO3)[C@H]1CCCO | inactive: 1.01 |
| C[C@H](CO)N1C[C@H](C)[C@@H](CN(C)CC2CC2)OCCCC[C@H](C)Oc2ccc(NC(=O)Cc3ccccc3)cc2C1=O | inactive: 0.998 |
| NC(=O)NCC#Cc1ccc2c(c1)[C@]1(C(=O)N2)[C@H](C(N)=O)[C@H]2C(=O)O[C@H](c3ccccc3)[C@H](c3ccccc3)N2[C@@H]1c1ccc(OCCO)cc1 | inactive: 1.01 |
| NC(=O)NCC#Cc1ccc2c(c1)[C@]1(C(=O)N2)[C@H](C(=O)O)[C@H]2C(=O)O[C@H](c3ccccc3)[C@H](c3ccccc3)N2[C@@H]1c1ccc(OCCO)cc1 | inactive: 0.986 |
| O=C(C[C@H]1C[C@@H]2c3cc(NS(=O)(=O)c4ccc(F)cc4)ccc3O[C@@H]2[C@H](CO)O1)NCc1ccccn1 | inactive: 0.99 |
| C[C@H](CO)N1C[C@H](C)[C@@H](CN(C)S(C)(=O)=O)Oc2c(NC(=O)c3cnccn3)cccc2C1=O | inactive: 1 |
| Cc1cc(=O)n2nc(CC(=O)NCCCn3c(C)cccc3=O)nc2[nH]1 | inactive: 0.981 |
| C[C@@H]1CCCCO[C@H](CN(C)CC2CC2)[C@@H](C)CN([C@@H](C)CO)C(=O)c2cc(NS(=O)(=O)c3ccc(Cl)cc3)ccc2O1 | inactive: 0.945 |

| SMILES | relative growth |
| --- | --- |
| COc1ccc([Si](C)(C)[C@H]2[C@H](CC(=O)N3Cc4ccccc4C[C@H]3CO)O[C@@]3(C(=O)N(Cc4cccc(N5CCOC5=O)c4)c4ccccc43)[C@@H]2C)cc1 | inactive: 0.999 |
| COc1ccc(NC(=O)Nc2ccc3c(c2)C(=O)N([C@H](C)CO)C[C@H](C)[C@H](CN(C)C(=O)NC(C)C)OCCCC[C@H](C)O3)cc1 | inactive: 0.984 |
| C=CC[C@H](Nc1ccccc1C)c1ccc(Cl)cc1 | inactive: 0.951 |
| COc1ccc(S(=O)(=O)N(C)C[C@H]2OCCCC[C@H](C)Oc3ccc(NS(=O)(=O)c4cn(C)cn4)cc3C(=O)N([C@@H](C)CO)C[C@H]2C)cc1 | inactive: 0.987 |
| C[C@H]1CN([C@@H](C)CO)C(=O)Cc2cc(NC(=O)C3CC3)ccc2O[C@@H]1CN(C)Cc1ccc2c(c1)OCO2 | inactive: 1 |
| COc1ccc(CN(C)C[C@H]2OCCCC[C@H](C)Oc3ccc(NS(=O)(=O)c4c(C)noc4C)cc3C(=O)N([C@@H](C)CO)C[C@@H]2C)cc1 | inactive: 0.889 |
| C[C@@H]1CN([C@@H](C)CO)S(=O)(=O)c2ccc(-c3cncnc3)cc2O[C@H]1CN(C)C(=O)NC1CCCC1 | inactive: 0.976 |
| CO[C@H]1CN(C)C(=O)c2ccc(NS(C)(=O)=O)cc2OC[C@H](C)N(C(=O)c2ccc3c(c2)OCO3)C[C@H]1C | inactive: 1.01 |
| C[C@@H]1CN([C@@H](C)CO)C(=O)c2cc(NS(C)(=O)=O)ccc2O[C@H]1CN(C)Cc1ccc2c(c1)OCO2 | inactive: 1.01 |
| Cn1c(CNc2ccccc2)cc(=O)n(C)c1=O | inactive: 0.992 |
| COc1ccc(NC(=O)N(C)C[C@@H]2OCc3cn(nn3)CCCC(=O)N([C@H](C)CO)C[C@@H]2C)c(OC)c1 | inactive: 1.01 |
| CC(C)NC(=O)Nc1ccc2c(c1)CC(=O)N([C@@H](C)CO)C[C@@H](C)[C@H](CN(C)C(=O)NC1CCCCC1)O2 | inactive: 0.994 |
| C[C@H](CO)N1C[C@H](C)[C@@H](CN(C)S(=O)(=O)c2ccc(F)cc2)Oc2ccc(NC(=O)C3CC3)cc2C1=O | inactive: 0.987 |
| C[C@@H]1CN([C@H](C)CO)C(=O)c2cc(C#CCN(C)C)cnc2O[C@H]1CN(C)S(=O)(=O)c1ccccc1 | inactive: 0.995 |
| O=C(Nc1ccc2c(c1)[C@H]1C[C@@H](CC(=O)N3CCc4ccccc4C3)O[C@H](CO)[C@H]1O2)C1CCOCC1 | inactive: 1.02 |
| Cc1ccc(S(=O)(=O)N(C)C[C@H]2Oc3ccc(NC(=O)NC(C)C)cc3CC(=O)N([C@@H](C)CO)C[C@@H]2C)cc1 | inactive: 1.02 |
| CCCC#Cc1cnc2c(c1)C(=O)N([C@H](C)CO)C[C@@H](C)[C@H](CN(C)C(=O)c1ccc3c(c1)OCO3)O2 | inactive: 1.02 |
| C[C@@H]1CN([C@H](C)CO)S(=O)(=O)c2ccc(C3=CCCCC3)cc2O[C@H]1CN(C)C(=O)C1CCOCC1 | inactive: 1.02 |
| CCS(=O)(=O)Nc1ccc2c(c1)C(=O)N(C)[C@@H]1CC[C@H](CC(=O)NCc3ccc(OC)cc3)O[C@H]1CO2 | inactive: 1.03 |
| C=C/C=C/[C@@H]1C(=C)CN2[C@H]1[C@H](Cc1ccccc1)OC(=O)[C@@H]2Cc1ccc(-n2cc(COc3ccccc3/C=C(C)/C=C/C(=O)NO)nn2)cc1 | inactive: 0.958 |
